To fix the notation:
B1: FUT7, Q11130 (protein)
chain: MNNAGHGPTRRLRGLGVLAGVALLAALWLLWLLGSAPRGTPAPQPTITILVWHWPFTDQPPELPSDTCTRYGIARCHLSANRSLLASADAVVFHHRELQTRRSHLPLAQRPRGQPWVWASMESPSHTHGLSHLRGIFNWVLSYRRDSDIFVPYGRLEPHWGPSPPLPAKSRVAAWVVSNFQERQLRARLYRQLAPHLRVDVFGRANGRPLCASCLVPTVAQYRFYLSFENSQHRDYITEKFWRNALVAGTVPVVLGPPRATYEAFVPADAFVHVDDFGSARELAAFLTGMNESRYQRFFAWRDRLRVRLFTDWRERFCAICDRYPHLPRSQVYEDLEGWFQA
B2: CLEC2D, Q9UHP7 (protein)
chain: MHDSNNVEKDITPSELPANPGCLHSKEHSIKATLIWRLFFLIMFLTIIVCGMVAALSAIRANCHQEPSVCLQAACPESWIGFQRKCFYFSDDTKNWTSSQRFCDSQDADLAQVESFQELNFLLRYKGPSDHWIGLSREQGQPWKWINGTEWTRQFPILGAGECAYLNDKGASSARHYTERKWICSKSDIHV
B3: GPR37, O15354 (protein)
chain: MRAPGALLARMSRLLLLLLLKVSASSALGVAPASRNETCLGESCAPTVIQRRGRDAWGPGNSARDVLRARAPREEQGAAFLAGPSWDLPAAPGRDPAAGRGAEASAAGPPGPPTRPPGPWRWKGARGQEPSETLGRGNPTALQLFLQISEEEEKGPRGAGISGRSQEQSVKTVPGASDLFYWPRRAGKLQGSHHKPLSKTANGLAGHEGWTIALPGRALAQNGSLGEGIHEPGGPRRGNSTNRRVRLKNPFYPLTQESYGAYAVMCLSVVIFGTGIIGNLAVMCIVCHNYYMRSISNSLLANLAFWDFLIIFFCLPLVIFHELTKKWLLEDFSCKIVPYIEVASLGVTTFTLCALCIDRFRAATNVQMYYEMIENCSSTTAKLAVIWVGALLLALPEVVLRQLSKEDLGFSGRAPAERCIIKISPDLPDTIYVLALTYDSARLWWYFGCYFCLPTLFTITCSLVTARKIRKAEKACTRGNKRQIQLESQMNCTVVALTILYGFCIIPENICNIVTAYMATGVSQQTMDLLNIISQFLLFFKSCVTPVLLFCLCKPFSRAFMECCCCCCEECIQKSSTVTSDDNDNEYTTELELSPFSTIRREMSTFASVGTHC
B4: ZKSCAN4, Q969J2 (protein)
chain: MAREPRKNAALDAQSAEDQTGLLTVKVEKEEASALTAEVRAPCSPARGPERSRQRFRGFRYPEAAGPREALSRLRELCGQWLQPEMHSKEQILELLVLEQFLTILPGNLQSWVREQHPESGEEVVVLLEYLERQLDEPAPQVPVGDQGQELLCCKMALLTQTQGSQSSQCQPMKALFKHESLGSQPLHDRVLQVPGLAQGGCCREDAMVASRLTPGSQGLLKMEDVALTLTPGWTQLDSSQVNLYRDEKQENHSSLVSLGGEIQTKSRDLPPVKKLPEKEHGKICHLREDIAQIPTHAEAGEQEGRLQRKQKNAIGSRRHYCHECGKSFAQSSGLTKHRRIHTGEKPYECEDCGKTFIGSSALVIHQRVHTGEKPYECEECGKVFSHSSNLIKHQRTHTGEKPYECDDCGKTFSQSCSLLEHHKIHTGEKPYQCNMCGKAFRRNSHLLRHQRIHGDKNVQNPEHGESWESQGRTESQWENTEAPVSYKCNECERSFTRNRSLIEHQKIHTGEKPYQCDTCGKGFTRTSYLVQHQRSHVGKKTLSQ
B5: FGL1, Q08830 (protein)
chain: MAKVFSFILVTTALTMGREISALEDCAQEQMRLRAQVRLLETRVKQQQVKIKQLLQENEVQFLDKGDENTVIDLGSKRQYADCSEIFNDGYKLSGFYKIKPLQSPAEFSVYCDMSDGGGWTVIQRRSDGSENFNRGWKDYENGFGNFVQKHGEYWLGNKNLHFLTTQEDYTLKIDLADFEKNSRYAQYKNFKVGDEKNFYELNIGEYSGTAGDSLAGNFHPEVQWWASHQRMKFSTWDRDHDNYEGNCAEEDQSGWWFNRCHSANLNGVYYSGPYTAKTDNGIVWYTWHGWWYSLKSVVMKIRPNDFIPNVI
B6: SMAD4, Q13485 (protein)
chain: MDNMSITNTPTSNDACLSIVHSLMCHRQGGESETFAKRAIESLVKKLKEKKDELDSLITAITTNGAHPSKCVTIQRTLDGRLQVAGRKGFPHVIYARLWRWPDLHKNELKHVKYCQYAFDLKCDSVCVNPYHYERVVSPGIDLSGLTLQSNAPSSMMVKDEYVHDFEGQPSLSTEGHSIQTIQHPPSNRASTETYSTPALLAPSESNATSTANFPNIPVASTSQPASILGGSHSEGLLQIASGPQPGQQQNGFTGQPATYHHNSTTTWTGSRTAPYTPNLPHHQNGHLQHHPPMPPHPGHYWPVHNELAFQPPISNHPAPEYWCSIAYFEMDVQVGETFKVPSSCPIVTVDGYVDPSGGDRFCLGQLSNVHRTEAIERARLHIGKGVQLECKGEGDVWVRCLSDHAVFVQSYYLDREAGRAPGDAVHKIYPSAYIKVFDLRQCHRQMQQQAATAQAAAAAQAAAVAGNIPGPGSVGGIAPAISLSAAAGIGVDDLRRLCILRMSFVKGWGPDYPRQSIKETPCWIEIHLHRALQLLDEVLHTMPIADPQPLD

This is one part of the list. Interaction screen of human proteins with wild-type SARS-CoV-2 proteins by split-DHFR complementation in yeast, 1 µg/mL methotrexate. Value = fitness of the pair (three or more lineages) minus that of the viral protein without a human partner, on a scale set by negative (0) and fused positive (1) controls, mean of up to three cultures; higher = more likely to interact. Active = false discovery rate below 0.05 (one-sided t-test) in at least one culture. Nearly all pairs are not hits, and differences among them are mostly noise (correlation between cultures about 0.3); most hits were seen in one culture only. Human sequences are the Swiss-Prot entries looked up by gene name; the clone may be another isoform. NSP2 values were corrected by the authors for a growth advantage. Listed are human proteins with a hit and a random twelfth of the others.

One assay concerns the target SARS-CoV-2 NSP13. The experiment in a line: yeast fitness gain over the viral ORF with no human partner (scaled fitness); higher = more likely to interact. As to the method: (§1)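 Split mouse DHFR complementation in pooled diploid yeast: human ORFeome clones carry one fragment and viral ORFs the other; barcoded lineages compete in 1 µg/mL methotrexate and fitness is read by barcode sequencing in up to three cultures.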
For B1, the yeast fitness gain is inactive: 0.0744.
On the same count and under the same terms, the result for B2 reads inactive: -0.0341; that for B3, inactive: 0.129.
The same measure, in the same setting: the result for B4 reads inactive: -0.142; that for B6, inactive: -0.135.

The target in another assay is SARS-CoV-2 NSP8. The description is as above. The method, then: as §1
As to B1, the yeast fitness gain is inactive: 0.0691.
As to B2, the yeast fitness gain was inactive: 0.0416.
Still for that read-out and setting: the result for B6 reads inactive: -0.131.

Another assay deals with SARS-CoV-2 ORF3B. The assay is described as above. The method, then: as §1
In the case of B1, the yeast fitness gain was inactive: 0.119.
The same measure, in the same setting: the result for B2 reads inactive: 0.0283.
The same measure, in the same setting: the value for B6 was inactive: 0.0518.

Another assay has as its target SARS-CoV-2 ORF6. The description is as above. As to the method:
as §1
For the molecule B1, the yeast fitness gain is inactive: 0.00431.
Same read-out and setting: the value for B2 was inactive: -0.218.
Same read-out and setting: the result for B3 reads inactive: -0.0352; that for B4, inactive: 0.0363; that for B6, inactive: -0.0235.

In another assay the target is SARS-CoV-2 ORF8. The assay is described as above. The method, then:
as §1
As for B1, the yeast fitness gain was inactive: -0.132.
The same measure, in the same setting: the result for B2 reads inactive: -0.0557; that for B5, inactive: -0.0957.
Take B6: the yeast fitness gain was inactive: -0.133.

The next assay addresses SARS-CoV-2 NSP12. The assay is described as above. As to the method:
as §1
As to B2, the yeast fitness gain was inactive: -0.34.
The same measure, in the same setting: the result for B4 reads inactive: -0.0944; that for B5, inactive: 0.0863.

For a further assay, the target named is SARS-CoV-2 NSP2. The description is as above. The method, then:
as §1
Consider B2, for which the yeast fitness gain is inactive: -0.0972.
Same read-out and setting: the result for B5 reads inactive: -0.183; that for B6, inactive: -0.0423.

A further assay deals with SARS-CoV-2 NSP5. Described as above. The method, then: as §1
Regarding B2, the yeast fitness gain is inactive: 0.00531.
The same measure, in the same setting: the result for B3 reads inactive: -0.061.

The target in another assay is SARS-CoV-2 ORF10. Described as above. The method, then:
as §1
With B2, the yeast fitness gain is inactive: 0.105.
Consider B3, for which the yeast fitness gain was inactive: -0.0087.

In the next assay the target is SARS-CoV-2 ORF7A. The description is as above. As to the method: as §1
In the case of B2, the yeast fitness gain was inactive: -0.0814.
For the molecule B6, the yeast fitness gain was inactive: -0.0249.

A further assay addresses SARS-CoV-2 ORF9B. The assay is described as above. As to the method: as §1
B2: the yeast fitness gain was inactive: 0.0152.
On the same count and under the same terms, the value for B3 was inactive: -0.116.
On the same count and under the same terms, the value for B5 was inactive: -0.0526.

The next assay concerns the target SARS-CoV-2 S. The assay is described as above. As to the method: as §1
For B2, the yeast fitness gain is inactive: -0.0142.

In a further assay the target is SARS-CoV-2 ORF3A. Described as above. The method, then:
as §1
Turning to B5, the yeast fitness gain is inactive: -0.0215.

A further assay has as its target SARS-CoV-2 ORF7B. The description is as above. As to the method: as §1
As for B5, the yeast fitness gain was inactive: 0.399.
